# Experimental data: PubChem BioAssay AID1768 (National Center for Advancing Translational Sciences (NCATS), 2009)
# Where “and” joins values, the source holds several entries; their conditions need not be identical. Equal values may be shown once. Out of some 270,000 compounds screened, about 620 (0.23%) were called active. Inconclusive results, whose numbers are uncertain, are shown with a selection of clear calls. Calls follow the shape of the dose curve; as a rule, active = well fitted inhibition curve with a large enough effect in the polarisation, with a control signal flat (not every such curve was filed as active); inconclusive = small, poorly fitted or top-dose-only effect, or effect the other way, or a change in a side signal; inactive = no such curve, though single readings can be large or run the other way; the % refers to the polarisation. Potencies beside an inconclusive call are fits to weak or partial responses and may not hold up. A note “side channel” means that the fit belongs to a control or component signal, not to the main read-out.
# Biological target: Menin (Homo sapiens) (UniProt O00255)
# UniProt O00255, sequence (O00255 whole entry, looked up): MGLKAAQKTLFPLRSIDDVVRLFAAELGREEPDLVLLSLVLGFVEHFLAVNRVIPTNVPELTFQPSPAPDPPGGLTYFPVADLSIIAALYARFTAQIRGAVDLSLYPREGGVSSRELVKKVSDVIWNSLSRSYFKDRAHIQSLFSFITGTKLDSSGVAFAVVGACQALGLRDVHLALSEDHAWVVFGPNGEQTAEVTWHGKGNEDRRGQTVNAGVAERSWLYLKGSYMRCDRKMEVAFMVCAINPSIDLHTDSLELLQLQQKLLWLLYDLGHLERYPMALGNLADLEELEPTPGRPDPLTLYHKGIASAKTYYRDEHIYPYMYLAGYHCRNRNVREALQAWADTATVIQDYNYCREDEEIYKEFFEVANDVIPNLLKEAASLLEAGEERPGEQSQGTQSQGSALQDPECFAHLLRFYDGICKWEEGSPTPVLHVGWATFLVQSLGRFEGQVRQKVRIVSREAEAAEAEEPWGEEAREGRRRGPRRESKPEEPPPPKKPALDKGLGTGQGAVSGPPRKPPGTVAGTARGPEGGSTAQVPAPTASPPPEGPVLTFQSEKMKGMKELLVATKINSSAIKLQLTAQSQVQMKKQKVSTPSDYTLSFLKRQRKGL
# Experiment: qHTS Assay for Inhibitors Targeting the Menin-MLL Interaction in MLL Related Leukemias: Competition With Texas Red Labeled MLL-derived Mutant Peptide; as to FP activity change, negative = inhibition: % of control where 0% means no effect
# Settings: fluorescence polarization; FP activity change, negative = inhibition: at 61.6 µM (top of the series)
# Potency is read from the fitted curve at half-maximal effect; tags tell the direction and shape of the fitted curve or compound fluorescence and quenching.
Structure (SMILES),Potency,"FP activity change, negative = inhibition"
CCCCC(=O)Nc1ccc(C(=O)Nc2ccc(S(=O)(=O)Nc3nccc(C)n3)cc2)cc1,"inconclusive: 35.5 µM [inhibitor, single point]",–
CN(C)CCCN1c2ccccc2CCc2ccc(Cl)cc21,"inconclusive: 15.8 µM [fluorescent, side channel, partial curve] and inconclusive: 11.2 µM [fluorescent, side channel, partial curve]",–
COc1cccc(NC(=O)Cc2ccccc2)c1,inactive,–
O=c1c2[nH]c3ccc(Cl)cc3c2ncn1Cc1ccccn1,"inconclusive: 39.8 µM [inhibitor, single point]",–
COC(=O)c1ccc(NC(=O)CNCc2ccncc2)cc1,inactive,–
COc1ccc2nc(NC(=O)c3cccc(-c4cc5ccccc5oc4=O)c3)sc2c1,"inconclusive: 14.1 µM [inhibitor, partial curve]",–
CCOC(=O)c1sc(NC(=O)CSc2n[nH]c(-c3ccc(Cl)cc3Cl)n2)c(C#N)c1C,"inconclusive: 20 µM [quencher, side channel, partial curve]",–
O=C(N/N=C/c1ccc(O)cc1)c1cc(-c2ccccc2)nc2ccccc12,"inconclusive: 25.1 µM [quencher, side channel, single point]",–
CCOC(=O)N1CCN(S(=O)(=O)c2cc(OCC(=O)NC3CCCCC3)c(C)cc2Cl)CC1,"inconclusive: 3.98 µM [fluorescent, side channel, full curve]",–
O=C(Nc1ccc(Cl)c(S(=O)(=O)N2CCOCC2)c1)c1ccc2c(c1)OCCO2,"inconclusive: 25.1 µM [quencher, side channel, single point]",–
O=C(COC(=O)c1cccc(N2C(=O)c3ccccc3C2=O)c1)Nc1ccccc1,inactive,–
COc1ccc(C2CCCN2CC(O)COc2ccccc2C(C)C)cc1 (stereo unspecified),"inconclusive: 17.8 µM [inhibitor, partial curve]",–
O=c1oc2cc(OCc3ccc(F)cc3F)ccc2cc1-c1ccccn1,inactive,–
O=C1/C(=C/c2ccc([N+](=O)[O-])cc2)C=C(c2ccccc2)N1c1ccccc1,"inconclusive: 10 µM [inhibitor, partial curve]",–
Cc1cc(C(C)(C)CC(C)(C)C)ccc1OCCOCC[N+](C)(C)Cc1ccccc1,"inconclusive: 1.26 µM [fluorescent, side channel, partial curve]",–
Cc1nn(Cc2c(F)c(F)c(F)c(F)c2F)c(C)c1NC(=O)c1ccc(COc2ccccc2Cl)o1,"inconclusive: 2.82 µM [fluorescent, side channel, single point]",–
CC(NC(=O)c1ccc(NC(=O)c2ccco2)cc1)c1ccccc1 (stereo unspecified),"inconclusive: 39.8 µM [inhibitor, single point]",–
Cc1cccc(C)c1NC(=O)C1(C)c2cccc[n+]2CC(=O)N1Cc1cccs1 (stereo unspecified),"inconclusive: 14.1 µM [fluorescent, side channel, partial curve]",–

Structure (SMILES),Potency,"FP activity change, negative = inhibition"
CCN(CC)c1ccc(NC(=O)c2ccc(Br)o2)c(C)c1,"inconclusive: 17.8 µM [inhibitor, partial curve]",–
COCCn1c(=O)c(-c2cc(F)cc(F)c2)nc2cnc(Nc3cccc(OC)c3)nc21,"inconclusive: 5.62 µM [quencher, side channel, full curve]",–
CCCC(C)NC(=O)Cn1c(=O)c2c(ncn2CCC(C)C)n(Cc2ccccc2)c1=O (stereo unspecified),"inconclusive: 28.2 µM [fluorescent, side channel, single point]",–
O=C1C=Cc2ccccc2/C1=C/c1[nH]c(=O)[nH]c1O,"inconclusive: 31.6 µM [quencher, side channel, single point]",–
CCn1cc(CN2CCN(CC(C)(C)C)C(CCO)C2)c2ccccc21 (stereo unspecified),inactive,–
COc1cccc(NC(=O)CSc2nnc(-c3ccoc3C)n2-c2ccccc2)c1,inactive,–
COC(=O)[C@H](Cc1ccccc1)NC(=O)[C@@H](C)CO,–,inactive: -2.53% [at 11.7 µM]
O=C(Cc1ccccc1)N[C@@H](Cc1ccccc1)C(=O)O,"inconclusive: 28.2 µM [quencher, side channel, single point]",–
O=C(NCCNc1ccc([N+](=O)[O-])cc1)c1cccc2c(Br)cccc12,"inconclusive: 28.2 µM [quencher, side channel, single point]",–
O=C(CSc1ccccc1)Nc1ccc(-c2nc3ccccc3[nH]2)cc1,"inconclusive: 12.6 µM [quencher, side channel, partial curve]",–
Brc1ccc(/C=N/Nc2ccc3ccccc3n2)cc1,"inconclusive: 39.8 µM [quencher, side channel, single point]",–
COc1ccc(CN2C[C@H](C)[C@@H](CC(=O)NCc3ccccc3)C2=O)cc1,"inconclusive: 5.01 µM [inhibitor, full curve, poor fit]",–
Cc1cccc(NC(=O)NC(=O)c2ccccc2)n1,"inconclusive: 35.5 µM [inhibitor, single point]",–
O=C(c1cnn2c(C(F)(F)F)cc(-c3ccc(F)cc3)nc12)N1CCc2ccccc2C1,"inconclusive: 2.51 µM [fluorescent, side channel, full curve, poor fit]",–
O=C(Nc1ccc(Cl)cc1)/C(=C/c1ccc([N+](=O)[O-])cc1)c1nc2ccccc2s1,"inconclusive: 11.2 µM [quencher, side channel, partial curve]",–
Nc1ccc(O)c(C(=O)O)c1,"inactive and inconclusive: 12.6 µM [quencher, side channel, partial curve]",–
CCC1Sc2ccc(S(=O)(=O)CCC(=O)Nc3c(Cl)cc(OC)cc3OC)cc2NC1=O (stereo unspecified),"inconclusive: 31.6 µM [quencher, side channel, single point]",–
CCCOC(=O)c1ccc(Oc2cn[nH]c2-c2ccc(OCC)cc2O)cc1,"inconclusive: 25.1 µM [quencher, side channel, partial curve]",–
